# Measurements: article PMC4336329 (PLoS ONE, 2015)
# Among all 310,000 compounds or so, about 2,200 (0.71%) showed an effect of 50% or more. The effect is printed as a negative number. The list shows a part of the results.
# Target: human ether-à-go-go-related gene (hERG) potassium channel (human, UniProt Q12809)
# Assay: primary screen, population patch clamp on CHO cells stably expressing hERG
# Sequence of human ether-à-go-go-related gene (hERG) potassium channel (Q12809 whole entry, looked up): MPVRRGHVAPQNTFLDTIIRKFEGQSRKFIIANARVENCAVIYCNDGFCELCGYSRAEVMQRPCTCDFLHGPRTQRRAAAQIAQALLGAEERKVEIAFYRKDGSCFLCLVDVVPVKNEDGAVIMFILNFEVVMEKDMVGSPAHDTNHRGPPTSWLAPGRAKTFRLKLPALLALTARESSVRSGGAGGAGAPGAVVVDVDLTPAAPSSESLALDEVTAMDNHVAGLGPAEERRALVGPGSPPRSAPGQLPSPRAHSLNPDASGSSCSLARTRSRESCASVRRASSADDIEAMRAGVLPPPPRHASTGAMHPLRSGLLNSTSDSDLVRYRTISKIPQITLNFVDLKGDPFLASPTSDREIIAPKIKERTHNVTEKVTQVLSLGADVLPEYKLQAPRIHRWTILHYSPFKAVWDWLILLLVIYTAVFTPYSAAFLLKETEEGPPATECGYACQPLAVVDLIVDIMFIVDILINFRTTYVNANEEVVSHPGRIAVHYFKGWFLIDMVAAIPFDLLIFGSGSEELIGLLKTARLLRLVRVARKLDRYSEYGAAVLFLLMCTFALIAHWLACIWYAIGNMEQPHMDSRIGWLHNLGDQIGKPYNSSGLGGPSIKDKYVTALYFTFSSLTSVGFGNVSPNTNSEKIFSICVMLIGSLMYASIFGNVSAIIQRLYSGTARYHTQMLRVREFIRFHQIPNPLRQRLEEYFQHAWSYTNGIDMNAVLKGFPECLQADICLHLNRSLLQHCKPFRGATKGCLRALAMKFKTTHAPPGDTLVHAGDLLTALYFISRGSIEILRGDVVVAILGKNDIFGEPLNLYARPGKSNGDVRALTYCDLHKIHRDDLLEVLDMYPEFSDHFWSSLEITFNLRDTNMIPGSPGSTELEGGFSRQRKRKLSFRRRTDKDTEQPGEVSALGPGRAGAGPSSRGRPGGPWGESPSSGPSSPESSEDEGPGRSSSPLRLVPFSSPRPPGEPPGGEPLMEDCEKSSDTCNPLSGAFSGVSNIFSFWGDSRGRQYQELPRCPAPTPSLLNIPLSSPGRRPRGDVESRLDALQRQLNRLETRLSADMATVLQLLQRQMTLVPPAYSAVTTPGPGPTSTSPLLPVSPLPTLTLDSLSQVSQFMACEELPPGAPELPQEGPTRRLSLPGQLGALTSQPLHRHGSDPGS
row,Structure (SMILES),"hERG current change (%, negative = inhibition) at 1uM [%]"
1,Cc1ccc(S(=O)(=O)NC(=O)Nc2ccc(C)cn2)cc1,26.2
2,OCC(O)[C@@H](O[C@H]1O[C@H](CO)[C@@H](O)[C@H](O)[C@H]1O)[C@H](O)[C@@H](O)CO (stereo partly drawn),14.4
3,COc1ccc(/C=C2\SC(=O)N(CC(=O)NN3CCN(C)CC3)C2=O)cc1OC,21.1
4,Cc1nc2ccc(NC(=O)Cc3ccccc3F)cc2s1,2.55
5,COc1ccc(NS(=O)(=O)NC(=O)c2c(C)n(C)c3ccccc23)cc1,15.9
6,COc1ccccc1NC(=O)COC(=O)COc1cccc2c1OC(C)(C)C2,-2.64
7,C/C(=N\Nc1ccccn1)c1ccc(C(C)C)cc1,11.6
8,Cc1cc(C)c2c(c1)/C(=c1/sc3n(c1=O)CN(c1ccccc1)CN=3)C(=O)N2,10.5
9,CC(Sc1nnc(COc2ccc(Cl)cc2)n1Cc1ccco1)C(=O)N1CCNC1=O (stereo not drawn),-5.57
10,CC(C)(Cl)C1Cc2cc3ccc(=O)oc3cc2O1 (stereo not drawn),8.67
11,Cc1c(NC(=O)Nc2ccc(F)cc2F)c(=O)n(-c2ccccc2)n1C,-12.8
12,COc1ccc(S(=O)(=O)N2CC(C)N(C(=O)N3CCOCC3)C2)cc1 (stereo not drawn),17.1
13,O=C1c2nc3cc(-c4ccccc4)[nH]n3c(=O)c2CN1Cc1ccccc1,15.4
14,CN(C)c1ccc(CN(C(=O)c2ccc(Cl)c([N+](=O)[O-])c2)C2CCS(=O)(=O)C2)cc1 (stereo not drawn),8.22
15,CCCCn1c(N)c(N(CCOC)C(=O)c2cc3c(s2)CCC(C)C3)c(=O)[nH]c1=O (stereo not drawn),12.9
16,O=C(Nc1ncc2c(n1)-c1ccccc1CC2)C1CC1,9.2
17,O=S(=O)(Nc1ccc(-c2ccc(N3CCOCC3)nn2)cc1)c1ccc(Cl)c(Cl)c1,12.4
18,Cc1ccc(NC(=O)COC(=O)CC2SC(N3CCCC3)=NC2=O)cc1 (stereo not drawn),11
19,CCCCc1cc(=O)oc2c(C)c(OCC(=O)NCc3ccccn3)ccc12,-18.6
20,Nc1cc2c(cc1Cl)N(Cc1ccccc1)C(=O)CO2,14.9
21,CC1(c2ccc3ccccc3c2)NC(=O)N(CC(=O)Nc2cccc(S(=O)(=O)N3CCOCC3)c2)C1=O (stereo not drawn),14.4
22,COCCn1ccc2c(OCC(=O)Nc3cc(OC)ccc3OC)cccc2c1=O,1.32
23,O=C(N[C@H]1CP(=O)(Oc2ccccc2)O[C@H](COCc2ccccc2)[C@H]1O)C(Cl)(Cl)Cl (stereo partly drawn),16.3
24,O=C(Nc1cccc(C(F)(F)F)c1)c1c(O)c2ccccc2[nH]c1=O,11.4
25,C=CCNC(=S)N/N=C/c1cn(C)c2ccccc12,14.9
26,CCCC(=O)NCC(c1cccs1)S(=O)(=O)c1ccc(Cl)cc1 (stereo not drawn),7.07
27,Cc1ccc(N2C(=O)CSCC2=O)cc1,-5.17

row,Structure (SMILES),"hERG current change (%, negative = inhibition) at 1uM [%]"
1,Nc1ccc(C(=O)OCC(=O)NC2CC2)cc1[N+](=O)[O-],10.4
2,CCOC(=O)C1CCN(C(=O)CSc2c3c(nc4ccccc24)CCC3)CC1,5.16
3,CCc1nnc(NC(=O)c2cccc(S(=O)(=O)N(C)c3ccccc3)c2)s1,18.8
4,Cn1c(CO)cnc1S(=O)(=O)Cc1c(Cl)cccc1Cl,5.51
5,O=C(Nc1ccc(Cl)cc1)N(Cc1cccs1)Cc1cccs1,-2.54
6,CN(C)C(=O)c1ccc(NC(=O)c2cccc(S(=O)(=O)N3CCCc4ccccc43)c2)cc1,6.04
7,Cc1cc(NC(=O)c2ccc(COc3ccc(Cl)c(C)c3)o2)no1,8.14
8,CCc1ccc(CNC(=O)c2ccc3nc(C4CCCCC4)oc3c2)nc1,11.3
9,COc1ccc(C(=O)Oc2cc(N)n(S(=O)(=O)c3ccccc3)n2)cc1,1.48
10,COc1ccc(C)cc1S(=O)(=O)Nc1ccc2c(c1)OCO2,8.95
11,COc1cc(C#Cc2c(C=O)n(C)c3ccccc23)cc(OC)c1,16.2
12,Cc1cc(C)n(CC(=O)N/N=C/c2cccs2)n1,1.86
13,Cc1c(Cl)cccc1NC(=O)Cn1cnc(S(=O)(=O)N2CCCC2)c1,16.5
14,Cc1cc(C)c(NC(=O)C2=COCCO2)c(C)c1,6.63
15,CCOc1ccc(/C=N/NC(=O)c2cc3c(OC)cc(OC)cc3[nH]2)cc1OC,14.3
16,CCOc1ccc(S(=O)(=O)N2CCOCC2)cc1NC(=O)CN1C(=O)NC(C)(c2ccccc2)C1=O (stereo not drawn),4.38
17,CN1CCN(C(=O)C2=C[C@@H](c3ccccc3)C[C@@H](OCCCCO)O2)CC1,7.49
18,CC1CCCC(NC(=O)C2CCN(S(=O)(=O)N3CCOCC3)CC2)C1C (stereo not drawn),1.56
19,CC(C)OC(=O)CSc1nc(N2CCOCC2)c2c(c1C#N)CC(C)(C)OC2,1.24
20,Cl.OC(CN1CCCCC1)Cn1c(C(F)(F)F)nc2ccccc21 (stereo not drawn),11.6
21,O=C(CC(Nc1ccc(Cl)cc1Cl)C(=O)O)c1ccccc1 (stereo not drawn),16.7
22,CCCCC1=CC2=C(c3ccco3)C(=O)C(C)(OC(=O)c3ccc(OC)cc3)C(=O)C2=CN1CCCOC(C)C (stereo not drawn),10.9
23,COc1ccc(S(=O)(=O)N2CCC(C(=O)NC(C)CCc3ccccc3)CC2)cc1 (stereo not drawn),11.1
24,Cc1ccc(N2CC(C(=O)Nc3ccccc3C(=O)NC3CCCCC3)CC2=O)cc1C (stereo not drawn),8.23
25,CCN(CC)S(=O)(=O)c1cc(NC(=O)CSc2nnc(N)s2)ccc1C,10.9
26,Cc1cc(C)cc(NS(=O)(=O)c2c(C(=O)N3CCCCCC3)c(C)n(C)c2C)c1,10.4
27,COc1ccc(CN2CCN(CCCc3ccccc3)C(CCO)C2)c(OC)c1 (stereo not drawn),-39.7
